Molecules are shown by their SMILES.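 Compound exposure: 48 hours, 5 concentrations, 96-well plates. GI50 = concentration required for 50% inhibition of growth.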 Activity calls are given as the source filed them. Cut-off read from the data, not from the text of the source: active = GI50 up to about 1.1 µM and inactive = higher. A value given as a limit tells only on which side of the number the result lay.

This experiment deals with NCI-H322M. Briefly: NCI tumour cell line growth inhibition, 48 h.
Regarding `Nc1nc(SCc2ccccc2)c2ncn(Cc3ccccc3)c2n1`, the GI50 was inactive: > 100 µM.

With `Nc1ncnc2c1ncn2C1OC(CO)C(O)C1N` (centres undefined), the GI50 was inactive: > 100 µM.

With `COc1ccc2c(Cc3c4ccccc4cc4ccccc34)cncc2c1O`, the GI50 was inactive: 7.13 µM.

Consider `C[Si](C)(C)C#Cc1cc(-c2nc3ccccc3s2)ccc1N`, for which the GI50 is inactive: 14.4 µM.

For the compound `O=C1c2ccccc2C(=O)c2c(Nc3cc4c5c(ccc6c7ccc8c9c(cc(Nc%10cccc%11c%10C(=O)c%10ccccc%10C%11=O)c(c3c56)c97)-c3ccccc3C8=O)C(=O)c3ccccc3-4)cccc21`, the GI50 was inactive: 78.3 µM.

Consider `O=C(O)CCSCc1ccc(I)cc1`, for which the GI50 was inactive: > 100 µM.

On to `Cn1c2ccccc2c2ccc3c(c21)C(=O)C=CC3=O`, for which the GI50 was inactive: 23.3 µM.

For `Cc1cc(C)n(C(=O)CSc2nnc(SCC(=O)n3nc(C)cc3C)s2)n1`, the GI50 is inactive: > 100 µM.

For `Oc1c(OCc2nnc(CCCCCCCCc3nnc(COc4ccc5ccccc5c4O)n3Nc3ccccc3)n2Nc2ccccc2)ccc2ccccc12`, the GI50 was inactive: 16 µM.

For the compound `Cc1cc(Cl)ccc1NC(=O)C(=O)Cc1ccc([N+](=O)[O-])c([N+](=O)[O-])c1CC(=O)C(=O)Nc1ccc(Cl)cc1C`, the GI50 is inactive: > 100 µM.

For the compound `C#CC1(O)CC(c2ccccc2)N(C)C(c2ccccc2)C1` (centres undefined), the GI50 was inactive: > 100 µM.

Consider `C#C[C@]1(O)CC[C@H]2[C@@H]3CCC4=C/C(=N/OC(=O)c5cccc6c(=O)c7ccccc7[nH]c56)CC[C@@H]4[C@H]3CC[C@@]21C`, for which the GI50 was inactive: 99.8 µM.

`CN1c2ccccc2S(=O)(=O)n2c(COc3ccc(Cl)cc3)nnc21`: the GI50 was inactive: > 100 µM.

On to `CN(C)C(C1=C(O)C(c2ccccc2)N(c2ccccc2)C1=O)N1CCOCC1` (centres undefined), for which the GI50 is inactive: > 10 µM.

Turning to `Cc1ccc(/S(Cc2ccccc2)=N\S(=O)(=O)c2ccc(C)cc2)cc1` (centres undefined), the GI50 is inactive: > 100 µM.

Take `CC(C)(C)OC(=O)NC1CCCCC1NC(=O)C(=O)NC1CCCCC1NC(=O)OC(C)(C)C` (centres undefined): the GI50 is inactive: > 100 µM.

Regarding `Cc1cc(N(CCC#N)CCC#N)ccc1/C=C(\NC(=O)/C=C/c1ccccc1)NC(=O)Nc1ccccc1C`, the GI50 is inactive: > 100 µM.

In the case of `O=c1[nH]nc(-c2ccccc2)n1/N=C/c1ccccc1Cl`, the GI50 was inactive: 42.8 µM.

For `CO/N=C\c1cc(O)c(O)c(/C=N/OC)c1`, the GI50 was inactive: 44 µM.

Regarding `N/C(=N\c1ccc(Cl)cc1)NS(=O)(=O)c1c(C(F)(F)F)cccc1C(F)(F)F`, the GI50 is inactive: 16.3 µM.

Turning to `c1ccc(COc2ccc(C[P+](c3ccccc3)(c3ccccc3)c3ccccc3)cc2)cc1`, the GI50 is inactive: 2.05 µM.

Turning to `COc1ccc(C(=C2C(=O)N(c3ccccc3)C(=O)C2=C(C)C)c2ccc(OC)cc2)cc1`, the GI50 is inactive: 7.5 µM.

Consider `COC1/C=C/C(C)C(C(C)C(OC)C(C)CCC(=O)C(C)C(C/C=C/N(C)C=O)OC)OC(=O)/C=C/C=C(\C)CC(OC)C(OC)C2=CC(=O)O[C@@H](C(C)C(OC)CC(OC)/C=C/C(C)C(O)C1)[C@H]2O` (some centres undefined), for which the GI50 was active: 0.343 µM.

On to `COCCNC1CCC2(SCCS2)c2[nH]c3ccccc3c21` (centres undefined), for which the GI50 is inactive: > 100 µM.

Take `COC(=O)/C(=C\Nc1cccc(C)n1)S(=O)(=O)c1ccc(C)cc1`: the GI50 was inactive: > 100 µM.

In the case of `O=C(Nc1sccc1S(=O)(=O)c1ccc(Cl)cc1)c1ccccc1`, the GI50 was inactive: > 100 µM.

Regarding `COI1NC(=O)c2ccccc21`, the GI50 is inactive: > 100 µM.

Turning to `Cc1ccc(C2=Nc3cccc4cccc(c34)N2)cc1`, the GI50 was inactive: > 100 µM.

For `Cc1ccc(C(C)(C)C[P+](C)(c2ccccc2)c2ccccc2)cc1`, the GI50 is inactive: 21.2 µM.

As for `N#CI1OC(=O)c2ccccc21`, the GI50 is inactive: > 100 µM.

In the case of `COC(O)C(=O)c1c2c(cc3c1CCC3)CCCC2` (centres undefined), the GI50 was inactive: 10.4 µM.

In the case of `CC(C)O/C=C1\C(=O)C2(SCCS2)[C@H]2CCCC[C@@H]12`, the GI50 is inactive: 38.1 µM.

As to `O=C1C[C@H](c2ccc(O)c(O)c2)Oc2cc(O)cc(O)c21`, the GI50 was inactive: > 100 µM.

As for `O=C(O)c1[nH]c(=O)[nH]c(=O)c1CN1CCCCC1`, the GI50 was inactive: > 100 µM.

Consider `COC(=O)C(CCCCN)NC(=O)C(CCCCN)NC(C)=O.Cc1ccc(C(=O)Nc2ccc(S(=O)(=O)O)c3cc(S(=O)(=O)O)cc(S(=O)(=O)O)c23)cc1NC(=O)c1cccc(NC(=O)Nc2cccc(C(=O)Nc3cc(C(=O)Nc4ccc(S(=O)(=O)O)c5cc(S(=O)(=O)O)cc(S(=O)(=O)O)c45)ccc3C)c2)c1`, for which the GI50 is inactive: > 50 µM.

For `CCCCCCNC(=O)C1=C(C)NC(C)=C(C(=O)NCCCCCC)C1`, the GI50 was inactive: > 100 µM.

Take `CC(=O)Nc1nnc(S(=O)(=O)NC(=S)Nc2ccc(Cl)cc2)s1`: the GI50 was inactive: > 100 µM.

Regarding `O=c1oc(-c2ccc(O)cc2)cc2cc(O)ccc12`, the GI50 was inactive: 26.5 µM.

For the compound `Cc1cc(O)c(C(C)C)cc1C(=S)Nc1ccc(Cl)cc1`, the GI50 is inactive: 16 µM.

Consider `CCOc1ccc(NC(=O)C(=O)C(/C(=N/N)C(=O)OC)c2nc3ccc([N+](=O)[O-])cc3nc2O)cc1` (centres undefined), for which the GI50 was inactive: > 100 µM.

Turning to `N#CC1(C#N)C(c2ccccc2)C=CC(c2ccc([N+](=O)[O-])cc2)C1(C#N)C#N` (centres undefined), the GI50 was inactive: 18.5 µM.

As for `CS(=O)(=O)O.[Ag]`, the GI50 was inactive: 17.1 µM.

For `COc1ccc(NC(=O)CC/C(CC(=O)c2ccccc2Cl)=N\Nc2nnc(C)n2N)cc1`, the GI50 is inactive: > 100 µM.

`COc1ccc(C[C@@H]2OC3(C=CC(=O)CC3Sc3ccccc3)O[C@H]2Cc2ccc(OC)cc2)cc1` (some centres undefined): the GI50 is inactive: 7.78 µM.

With `C/C(=N/NC(=O)c1ccncc1)C(F)(F)F`, the GI50 was inactive: > 100 µM.

`O=C(c1cccs1)N(C(=S)OC12CC3CC(CC(C3)C1)C2)c1ccccc1`: the GI50 was inactive: 35.8 µM.

On to `Oc1nc(-c2ccccc2)cc(-c2ccccc2O)n1`, for which the GI50 is inactive: > 100 µM.

Turning to `COc1ccc(/C=C2/CSCC3=C2N=C(S)NC3c2ccc(OC)c(OC)c2OC)c(OC)c1OC` (centres undefined), the GI50 was inactive: 21.2 µM.

With `Cc1sc2nc(-c3cccc([N+](=O)[O-])c3)c(/C=N/N=C(N)N)n2c1C`, the GI50 is inactive: 1.57 µM.

On to `Cc1cccc2c1CC1(Cc3c(C)cccc3C1=O)C2=O`, for which the GI50 is inactive: > 100 µM.

In the case of `O=C(Nc1ccc(Cl)c(Cl)c1)C(=O)C(C(=O)c1ccccc1-c1ccccc1)C1OC(=O)c2ccccc21` (centres undefined), the GI50 was inactive: 13.6 µM.

Consider `COc1ccc(C(=O)C(c2ccc(OC)cc2)C2(O)C(=O)Nc3c(C)cc(Cl)cc32)cc1` (centres undefined), for which the GI50 is inactive: > 100 µM.

Consider `COc1nc2c(N3CCCC3)nc(N3CCNCC3)nc2nc1NCc1ccccc1`, for which the GI50 is inactive: 2.92 µM.

With `Cc1cccc2c1NC(=O)/C2=N\Nc1ccccc1[N+](=O)[O-]`, the GI50 was inactive: 13.2 µM.

Consider `CCC(=O)Nc1ccc(NS(=O)(=O)c2ccc(Cl)cc2)cc1`, for which the GI50 is inactive: > 100 µM.

As for `O=c1[nH]ncc2[nH]c3c4ccccc4ccc3c12`, the GI50 is inactive: 29.4 µM.

Take `O=P(c1ccccc1)(c1ccccc1)C1CC=C(c2ccccc2)C2(CCCC2)C1` (centres undefined): the GI50 is inactive: 31.3 µM.

Turning to `Cc1nc(Nc2ccccc2)sc1C(=O)NNC(N)=O`, the GI50 is inactive: > 100 µM.

As for `CN(C)CCNC(=O)c1cccc2c1Nc1ccccc1S2`, the GI50 was inactive: 14.3 µM.

For the compound `O=c1cc(-c2ccccc2)[nH]c2cc(Cl)cc(Cl)c12`, the GI50 was inactive: 58.6 µM.

For the compound `CN(C)CC1CCC/C(=C\c2ccc(Cl)cc2)C1=O` (centres undefined), the GI50 was inactive: 15.2 µM.

For the compound `CCOc1ccc(NC(=O)C(=O)CC(=O)c2c[n+]([O-])c3cc(C)c(C)cc3[n+]2[O-])cc1`, the GI50 is inactive: > 100 µM.

Regarding `Cc1ccc(/C=C2\CN(C)CC3=C2N=C(S)NC3c2ccc(C)cc2)cc1` (centres undefined), the GI50 is inactive: 56.5 µM.

As to `C/C=C/C(=O)Oc1cccc2cccnc12`, the GI50 was inactive: 25.5 µM.

For the compound `Cn1c2ccccc2c2ccc3c(c21)C(=O)C(c1ccccc1)=CC3=O`, the GI50 was inactive: 30.9 µM.

For `FC(F)(F)c1ccc(Cc2nc3cc4ccccc4cc3[nH]2)cc1`, the GI50 was inactive: > 100 µM.

As for `CC(=O)Nc1ccccc1-c1cnc2ccccc2n1`, the GI50 was inactive: > 100 µM.

Consider `CSC(SC)=C1Sc2cccc(Cl)c2S1`, for which the GI50 was inactive: > 100 µM.

On to `O=c1[nH]c(=O)n(COCc2ccccc2)c2ccccc12`, for which the GI50 is inactive: > 100 µM.

On to `OCc1ccc2c(c1)CC1(C2)Cc2cc3c(cc2C1)CCC3`, for which the GI50 is inactive: 6.75 µM.

Turning to `CC(/C=C/C=C/C=C/C=C/C=C/C(=O)C1=C(O)C(CCC(=O)O)N(C)C1=O)=C\C(C)C(OC1CC(O)C(O)C(C)O1)C(C)C` (centres undefined), the GI50 is inactive: 2.63 µM.

As for `O=S(=O)(O)c1ccc2cccc(/N=N\c3c(O)ccc4ccccc34)c2c1`, the GI50 was inactive: > 100 µM.

Regarding `CC(NNC(=O)c1cc[n+]([BH2-]C#N)cc1)c1cccc(C(F)(F)F)c1` (centres undefined), the GI50 was inactive: > 100 µM.

Regarding `C=C1C(=O)C23CC1C[C@H](OC(C)=O)C2C1(C)C(OC(C)=O)C[C@H](O)C(C)(C)[C@H]1C(O)[C@@H]3OC(C)=O` (some centres undefined), the GI50 was inactive: 19.6 µM.

With `CC1CCCC2(O1)OC1CC(=O)OC1C1=C2C(=O)c2ccccc2C1=O` (centres undefined), the GI50 is inactive: 16.2 µM.

Take `Nc1nc(N)c2cc(S(=O)(=O)c3ccc4ccccc4c3)ccc2n1`: the GI50 is inactive: 23.8 µM.

In the case of `CCOCC(=O)N[C@H]1CCc2cc(OC)c(OC)c(OC)c2-c2ccc(OC)c(=O)cc21`, the GI50 is active: 0.0209 µM.

With `CCOC(=O)Nc1ccc(S(=O)(=O)OC)cc1.CCOC(=O)Nc1ccc(S(=O)(=O)OC)cc1.NC(=O)NCCO`, the GI50 was inactive: > 50 µM.

In the case of `CC(=O)OC1CCC2(C)C3CCC4(C)C(c5ccc(=O)oc5)CC5OC54C3CCC2(O)C1` (centres undefined), the GI50 was active: 0.838 µM.

For the origin of these results see ChEMBL document CHEMBL1201862, “PubChem BioAssay data set” (2004).
